Source: PubChem BioAssay AID1508642 (National Center for Advancing Translational Sciences (NCATS), 2021)
The whole screen tested about 43,000 compounds, of which about 200 (0.47%) were called active. Inconclusive results (about 12%) are left out. Calls come from the whole dose curve; as a rule, active = well fitted cell-killing curve with a large enough effect; inconclusive = small, poorly fitted or top-dose-only effect, or effect the other way; inactive = flat fitted curve, though single readings scatter. Some of the results follow.

test: Cell viability qHTS assay in S16 Pmp22-F2sN cells; conditions: S16 Pmp22-F2sN Schwann cells (luciferase reporters placed in the Pmp22 gene) viability, CellTiter-Glo, 24 h; series mostly up to 57.5 µM; activity change, negative = cytotoxicity: at the top concentration; note: nearly all actives have a fitted effect of over 65% in size
Summary of the method: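 Seed 500-1,000 S16 Pmp22-F2sN cells per well in phenol-red-free DMEM with 10% heat-inactivated FBS; pin-add 23 nL compound; incubate 24 h at 37C; add CellTiter-Glo, wait 15 min protected from light; read luminescence.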
% is set by controls: 0 for no effect and ±100 for the full control effect; potency is the fitted concentration of half-maximal effect.

SMILES | activity change, negative = cytotoxicity | Potency
CCOc1ccc(CNCc2c(C(=O)O)c(C)n(Cc3ccc(F)cc3Cl)c2C)cc1 | inactive: -4.73% | 
CCN1CCN(C(=O)c2ccc3c(c2)N(Cc2ccccc2)C(=O)c2ccccc2S3=O)CC1 (centres undefined) | inactive: 10.5% | 
Cc1nn(CCCC(=O)NCc2cccc(F)c2)c(=O)c2nn(-c3ccccc3)c(C)c12 | inactive: -0.335% | 
COc1ccc(OC)c(-c2nc(C(N)=O)c3c(n2)n(-c2ccc4c(c2)OCO4)c(=O)n3C)c1 | inactive: 20.5% | 
COc1ccc(Cl)cc1C(=O)Nc1ccc2oc(-c3ccc(C(C)(C)C)cc3)nc2c1 | inactive: 13.9% | 
CCCn1ccc2c(OCC(=O)NCc3ccc(F)cc3)cccc2c1=O | inactive: -3.67% | 
Cc1ccc(-c2nc(S(=O)(=O)c3ccc(Cl)cc3)c(N3CCCCC3)o2)cc1 | inactive: 1.67% | 
COc1ccc(CNC(=O)Cn2nnc(-c3ccccc3F)n2)cc1 | inactive: -4.11% | 
CCc1cc2c(cc3c(=O)n(CC(=O)N4CCCCC4)nc(CC)n32)s1 | inactive: 18.6% | 
CC(C)c1nnc(NC(=O)c2nc(SCc3ccc(F)cc3)ncc2Cl)s1 | inactive: 7.97% | 
CCCSc1ncc(Cl)c(C(=O)Nc2sc3c(c2C(=O)NCC)CCCC3)n1 | inactive: 14.5% | 
Cc1cc2n(n1)CCCN2C(=O)Nc1ccc(Cl)cc1 | inactive: -23.8% | 
CCCSC1=NC2(CCN(C(=O)NC3CCCCC3)CC2)N=C1c1ccccc1 | inactive: 3.15% | 
COc1cc(Cl)ccc1OC(=O)c1cn(-c2ccccc2OC)c(=O)c2ccccc12 | inactive: 5.73% | 
CC1C(=O)Nc2ccc(S(=O)(=O)Nc3ccccc3Br)cc2NC1=O (centres undefined) | inactive: -4.38% | 
CC(C)CCNC(=O)c1ccc(Cn2c(SCC(=O)NC(C)C)nc3ccccc3c2=O)cc1 | inactive: 8.57% | 
Cc1ccc(Cl)cc1N1CCN(C(=O)c2cccn2-c2nnc(N3CCCCC3)s2)CC1 | inactive: 5.26% | 
Cc1ccc(C)c(S(=O)(=O)c2nnn3c2nc(NCc2cccs2)c2sccc23)c1 | inactive: -14.1% | 
COc1ccc2c(c1)c1c(c(=O)n(-c3ccccc3)c(=O)n1CC(=O)Nc1ccc(F)cc1)n2C | inactive: 2.02% | 
CCc1ccc(-n2c(SCC(=O)NC(C)CC)nc3n[nH]c(C)c3c2=N)cc1 (centres undefined) | inactive: -17.2% | 
COc1ccc(N2CC(NC(=O)c3ccc4c(c3)OCO4)CC2=O)cc1OC (centres undefined) | inactive: 7.83% | 
Cc1c(-c2ccccc2)c(=O)oc2c(CN3CCN(C)CC3)c(O)ccc12 | inactive: 11.6% | 
Cc1ccc2nc(Cl)c3cc(C(=O)NCCCN4CCC(C)CC4)sc3c2c1 | inactive: 15.1% | 
CCC(CC)C(=O)Nc1ccc(C(=O)OCc2cc(=O)n3nc(C4CC4)sc3n2)cc1 | inactive: -6.23% | 
CCC(=O)Nc1ccc(C)cc1-c1nc2ccccc2n(C(C)C(=O)Nc2ccccc2CC)c1=O (centres undefined) | inactive: -6.8% | 

SMILES | activity change, negative = cytotoxicity | Potency
CCOc1ccc(-c2noc(CSc3nnc(-c4ccccc4)n3-c3ccccc3)n2)cc1 | inactive: 5.28% | 
O=C(CCn1c(=O)c2cccn2c2cccnc21)NCc1ccccc1Br | inactive: 17% | 
Cc1ccc(N(C)S(=O)(=O)c2ccc3c(c2)C(C)(C)C(=O)N3C)cc1C | inactive: -25.2% | 
O=C(NCc1ccccc1Cl)c1cccn1-c1nnc(N2CCCCC2)s1 | inactive: 0.0258% | 
CCC(C(=O)N1CCN(c2cc(Cl)ccc2C)CC1)n1nc(C)c2sc3ccccc3c2c1=O (centres undefined) | inactive: 13.1% | 
CCN(CC)CCCNC(=O)CCCn1c(=O)[nH]c2ccc(Br)cc2c1=O | inactive: 1.61% | 
CC(=O)c1ccccc1NS(=O)(=O)c1cc2c(cc1C)NC(=O)CO2 | inactive: 1.65% | 
Cc1ccc(-n2nc(C(=O)N3CCN(c4ccccc4F)CC3)c3c4ccccc4n(C)c3c2=O)cc1 | inactive: 9.08% | 
COc1cccc(CNC(=O)CN2N=C(c3ccc(C)cc3)CCC2=O)c1 | inactive: 6.23% | 
CC(C)CC(=O)NCC(c1ccc2c(c1)OCO2)N1CCN(c2ccccc2F)CC1 (centres undefined) | inactive: 0.246% | 
CCOC(=O)c1ccc(NC(=O)Nc2ccc3snnc3c2)cc1 | inactive: 0.413% | 
Cc1ccccc1N(C)C(=O)c1noc2c1COc1ccccc1-2 | inactive: -8.63% | 
Cc1cccc(-c2nc(SCC(=O)NCC3CCCO3)c3c(=O)n(C)c(=O)n(C)c3n2)c1 (centres undefined) | inactive: -6.65% | 
Cc1c(Cl)cccc1NC(=O)Cn1nc(C(F)(F)F)c2c1CCC2 | inactive: 18.4% | 
Cc1cc(C)c(NC(=O)Cn2c(=O)n(CCc3ccccc3)c(=O)c3ccccc32)c(C)c1 | inactive: 12.5% | 
COc1ccc(OC)c(CNC(=O)c2ccccc2NC(=O)c2nsc3ccccc23)c1 | inactive: -0.155% | 
CCOc1ccccc1C(=O)N1CCN(CCc2ccccn2)CC1 | inactive: 3% | 
Cc1ccc(C2=Nc3ccccc3N(CC(=O)Nc3ccccc3C)C(=O)C2)cc1C | inactive: -29.6% | 
Cc1ccc(CNC(=O)NC2COc3ccccc3C2)cc1 (centres undefined) | inactive: 6.39% | 
CC1=C(C(=O)Nc2ccccc2)C(c2cccc(O)c2)n2nc(-c3ccccc3Cl)nc2N1 (centres undefined) | inactive: 5.28% | 
Cn1cc(S(=O)(=O)N2CCCCCC2)cc1C(=O)NCc1ccc(Cl)cc1 | inactive: 3.45% | 
Cc1onc(-c2ccccc2Cl)c1C(=O)Oc1ccc(Br)cc1 | inactive: 12.5% | 
COc1ccc(CCNC(=O)c2c(C)oc3nc(C)nc(N4CCOCC4)c23)cc1OC | inactive: 3.24% | 
Cc1cc(C)n(-c2nc3ccccc3nc2Nc2cccc(C(=O)NCCc3ccccc3)c2)n1 | inactive: -3.15% | 
Cc1ccc(NC(=O)C2CCCN(S(=O)(=O)c3cccc4cccnc34)C2)c(Br)c1 (centres undefined) | inactive: -20.8% | 

SMILES | activity change, negative = cytotoxicity | Potency
CCOC(=O)c1ccc(NC(=O)C2Cc3ccccc3C(=O)O2)cc1 (centres undefined) | inactive: 6.55% | 
Brc1ccc(CNCCCSc2nnnn2-c2ccccc2)cc1 | inactive: -0.757% | 
Cc1cccc(-c2noc(CNC(=O)c3ccco3)n2)c1 | inactive: -0.722% | 
Cc1ccc(-n2nnnc2CNC(=O)c2ccc(F)cc2)cc1C | inactive: -2.3% | 
CC(=O)N(Cc1cccnc1)c1nc2ccc(F)cc2s1 | inactive: -16.5% | 
COc1cccc2cc(-c3cn4c(n3)sc3cc(F)ccc34)c(=O)oc12 | inactive: -0.347% | 
COc1ccc(C(=O)NCC(c2cccs2)S(=O)(=O)c2ccc(F)c(C)c2)cc1 (centres undefined) | inactive: 0.664% | 
CC(=O)Nc1ccc(C)cc1-c1nc2ccccc2n(CC(=O)c2ccc(Cl)cc2)c1=O | inactive: 7.32% | 
Cc1ccc(CNC(=O)c2c(-c3ccccc3Cl)noc2C)o1 | inactive: -2.13% | 
Cc1coc2cc3oc(=O)c(CC(=O)NCc4cccc(Cl)c4)c(C)c3cc12 | inactive: 1.95% | 
Cc1cccc(NC(=O)COc2ccc(-c3nn(C)c(=O)c4ccccc34)cc2)c1 | inactive: 25.9% | 
COC(=O)c1ccccc1NC(=O)CSc1nc(=O)cc(N)n1-c1ccccc1 | inactive: 0.624% | 
CCOc1ccc(NC(=O)CSc2nnc(-c3ccc(OCC)cc3)o2)cc1 | inactive: -3.15% | 
Cc1ccc(NC(=O)Cn2c(=O)n(Cc3nc(-c4ccccc4)no3)c(=O)c3ccccc32)cc1C | inactive: -2.23% | 
COc1cc(OC)c(NC(=O)CN2CCCN(Cc3ccccc3C)S2(=O)=O)cc1Cl | inactive: 0.206% | 
CCc1ccc(S(=O)(=O)c2cn(Cc3ccccc3F)c3cc(OC)c(OC)cc3c2=O)cc1 | inactive: -18.3% | 
Cc1ccccc1C(=O)Nc1c(C)nc2ccccn2c1=O | inactive: 10.6% | 
Cn1c(=O)oc2cc(S(=O)(=O)N3CCCC(C(=O)NCCc4ccccc4)C3)ccc21 (centres undefined) | inactive: 9.18% | 
CC(=O)c1ccc(NS(=O)(=O)c2ccc3[nH]c4c(c3c2)CCCC4)cc1 | inactive: 0.117% | 
Cc1cc(S(=O)(=O)NCC(c2ccco2)S(=O)(=O)c2cccs2)ccc1F (centres undefined) |  | active: 10 µM
Cc1cccc(NC(=O)CS(=O)(=O)c2cccc3nsnc23)c1 | inactive: -0.0382% | 
Cc1ccc(CCNC(=O)c2c3c(nc4ccccc24)C(=O)N(C2CCCCC2)C3)cc1 | inactive: -1.04% | 
Cc1cccc(CNC(=O)c2ccc3nc(Cc4ccccc4)oc3c2)c1 | inactive: -6.09% | 
O=C(NCCc1ccccc1)c1nn(-c2ccc(F)cc2)nc1CO | inactive: -7.25% | 
CCOc1ccc(C2c3[nH]c4ccccc4c3CCN2C(=O)CSCc2ccc(F)cc2)cc1 (centres undefined) | inactive: -9.41% | 

SMILES | activity change, negative = cytotoxicity | Potency
Cc1ccc(F)cc1NC(=O)Cn1c(C)cc(C)c(C#N)c1=O | inactive: -2.56% | 
CC1CCN(c2nc3ccc(C(=O)NCc4ccccc4Cl)cc3s2)CC1 | inactive: -0.811% | 
O=C(NC1CCCC1)c1ccc2c(c1)N(Cc1ccccc1)C(=O)c1ccccc1S2 | inactive: -1.24% | 
Cc1ccc(S(=O)(=O)c2nnn3c2nc(NCCc2ccccc2)c2sccc23)cc1 | inactive: -0.685% | 
COc1ccc(N2CCN(Cc3nc4c(c(=O)[nH]c(=O)n4C)n3CC(C)C)CC2)cc1 | inactive: 16.8% | 
O=C(NCc1cccc(Br)c1)c1ccc(NC(=O)N2CCCCc3ccccc32)cc1 | inactive: -24.3% | 
COCCCNC(=O)Cn1c(=O)nc(-c2ccccc2)c2ccccc21 | inactive: 5.85% | 
Cc1ccc(-n2nc3c(=O)n(CC(=O)NCCC(C)C)nc(C)c3c2C)cc1 | inactive: -3% | 
CC(CNC(=O)c1nnc(Cc2ccc(F)cc2)o1)c1ccccc1 (centres undefined) | inactive: 4.74% | 
O=C(Cn1cc(S(=O)(=O)Cc2cccc(Cl)c2)c2ccccc21)Nc1ccccc1Cl | inactive: 9.16% | 
COc1cccc(NC(=O)CSc2nccn2C2CCCC2)c1 | inactive: 1.25% | 
CCCCC12CN3CC(C)(CN(C1)C3c1ccc(O)c(OC)c1)C2=O (centres undefined) | inactive: 0.0571% | 
COc1ccc(Cn2cc(C(=O)c3ccc(C)c(C)c3)c(=O)c3ccccc32)cc1 | inactive: -17.4% | 
CCOc1ccc(CCNC(=O)c2cc(C)nc3c2c(C)nn3-c2cccc(F)c2)cc1 | inactive: 5.59% | 
Cc1cccn2c(=O)c(C(=O)NCCc3ccccc3)cnc12 | inactive: -0.297% | 
COc1ccc(C)cc1NS(=O)(=O)c1c(C(=O)N2CCCCCC2)c(C)n(C)c1C | inactive: 10.7% | 
COc1ccc(CC(=O)NCCc2csc(-c3cccc(C)c3)n2)cc1 | inactive: 3.45% | 
CC(C)OCCCNC(=O)Cn1ccc2cc(S(=O)(=O)N3CCCCCC3)ccc21 | inactive: -14.9% | 
Cc1cccc(OCC(=O)Nc2ccc(-c3nc4ccccc4o3)cc2)c1C | inactive: 15.6% | 
CC(C)CNC(=O)N1[C@H](c2cccs2)[C@@H](C)C(=O)[C@@H](C)[C@@H]1c1cccs1 | inactive: 3.93% | 
Cc1oc(-c2ccccc2Cl)nc1Cn1c(SCc2cccc(F)c2)nc2cccnc21 | inactive: -24.5% | 
Cc1ccc(-n2c(=O)[nH]c3cc(C(=O)NCc4ccccc4)ccc3c2=O)cc1 | inactive: -0.232% | 
CC(=O)c1cccc(NC(=O)CC(c2ccc(C)cc2)N2Cc3ccccc3C2=O)c1 (centres undefined) | inactive: -3.96% | 
Cc1nc(-c2ccccc2)sc1-c1ccc(SCC(=O)NCc2ccc(Cl)cc2)nn1 | inactive: 24% | 
